# Reference: the BET-seq Pho4 binding data (Le et al. 2018)
# The other results are listed elsewhere or left out. The energies were worked out here from pooled read counts, against the library average; single values are noisy.
# Biological target: T1, Pho4 (S. cerevisiae) (UniProt P07270)
# T1 sequence: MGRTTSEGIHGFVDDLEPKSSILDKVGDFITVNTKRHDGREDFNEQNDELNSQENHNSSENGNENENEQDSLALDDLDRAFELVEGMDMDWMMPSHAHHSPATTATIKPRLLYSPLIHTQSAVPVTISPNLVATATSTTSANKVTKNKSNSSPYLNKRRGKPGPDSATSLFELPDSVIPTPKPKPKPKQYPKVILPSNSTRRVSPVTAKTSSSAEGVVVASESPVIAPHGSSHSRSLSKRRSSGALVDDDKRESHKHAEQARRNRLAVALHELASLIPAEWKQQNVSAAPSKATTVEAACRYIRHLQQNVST
# Experiment: relative binding free energy (BET-seq); higher = weaker binding
# Settings: reference: library average
row,Sequence,relative binding free energy
1,AGCGCCACGTGCGGGG,-0.14 kcal/mol
2,TTCGGCACGTGGAGAT,0.08 kcal/mol
3,TGTGCCACGTGGTGCT,-0.27 kcal/mol
4,TCGAGCACGTGGGGTT,-0.19 kcal/mol
5,AGAATCACGTGGTTAT,0.1 kcal/mol
6,GGTGTCACGTGCTAGG,0.02 kcal/mol
7,ATGGACACGTGGGCGG,-0.15 kcal/mol
8,AGGGACACGTGGCTTT,-0.07 kcal/mol
9,GATTTCACGTGTTAAT,0.41 kcal/mol
10,GGTTACACGTGAGAGA,0.53 kcal/mol
11,TTGTCCACGTGGTAAG,0.11 kcal/mol
12,TCGGTCACGTGAGGAG,0.29 kcal/mol
13,ATTTTCACGTGCTATG,0.09 kcal/mol
14,GAATACACGTGGTTGG,0 kcal/mol
15,GTTGTCACGTGTTTTT,0.12 kcal/mol
16,GACTGCACGTGTATTG,0.1 kcal/mol
17,TGAAACACGTGGCGGG,-0.11 kcal/mol
18,AGGTACACGTGTCTTT,0.08 kcal/mol
19,GTGTTCACGTGTAATG,0.24 kcal/mol
20,TGTGGCACGTGAAAAG,0.1 kcal/mol
21,TCTGTCACGTGGGGAC,0.02 kcal/mol
22,TTGTACACGTGGAAAA,0.28 kcal/mol
23,GGGTACACGTGAGATT,0.36 kcal/mol
24,GGGCACACGTGCTGGG,0.02 kcal/mol
25,GCTTTCACGTGTGTAT,0.33 kcal/mol

row,Sequence,relative binding free energy
1,TTATTCACGTGGGGTC,0.11 kcal/mol
2,CGATTCACGTGGAGGT,0.45 kcal/mol
3,CTGTGCACGTGGTAGA,-0.16 kcal/mol
4,CTTGTCACGTGAAAGT,0.18 kcal/mol
5,CGTGACACGTGGGAGT,-0.06 kcal/mol
6,TTTGGCACGTGTGCTC,-0.19 kcal/mol
7,AGTAGCACGTGTTTAT,-0.04 kcal/mol
8,TATCGCACGTGTGGAT,-0.01 kcal/mol
9,TGCTTCACGTGGGTTT,0.27 kcal/mol
10,ATAGCCACGTGTTTGT,-0.07 kcal/mol
11,GGACACACGTGTTAGG,0.13 kcal/mol
12,CTGAGCACGTGTTATT,-0.09 kcal/mol
13,AATATCACGTGAGGGA,0.39 kcal/mol
14,GTGAGCACGTGATATT,0.07 kcal/mol
15,TGCGTCACGTGAGGGT,0.18 kcal/mol
16,TAATACACGTGATTAG,0.22 kcal/mol
17,AGGGTCACGTGAGCTG,0.35 kcal/mol
18,GTTTCCACGTGCAGGG,0.05 kcal/mol
19,TGGTTCACGTGGACGC,0.35 kcal/mol
20,AATGGCACGTGCGGGC,-0.27 kcal/mol
21,TGAGGCACGTGCGAGT,-0.14 kcal/mol
22,GCGCGCACGTGGGTGA,-0.2 kcal/mol
23,AGTTTCACGTGAAGGT,0.37 kcal/mol
24,ATTAACACGTGAGGAT,0.1 kcal/mol
25,TCTTGCACGTGTGTGT,0.03 kcal/mol

row,Sequence,relative binding free energy
1,TGGTGCACGTGGTGAA,-0.04 kcal/mol
2,TTGGTCACGTGCGCGC,0.07 kcal/mol
3,AATTACACGTGGAATG,0.16 kcal/mol
4,AGGGGCACGTGGATGC,-0.04 kcal/mol
5,ATTGACACGTGAAAGG,0.34 kcal/mol
6,TTTCACACGTGAGTGA,0.37 kcal/mol
7,TAGCTCACGTGTAAGG,0.27 kcal/mol
8,GTGGACACGTGTAGGT,0.03 kcal/mol
9,TTCTGCACGTGTTGGT,0.09 kcal/mol
10,ATGTCCACGTGTGGGC,0.11 kcal/mol
11,GGGTACACGTGTCGAG,0.18 kcal/mol
12,AGGCCCACGTGTGTTG,-0.1 kcal/mol
13,GGTGTCACGTGAACTT,0.34 kcal/mol
14,CGTGGCACGTGTCTGA,0.02 kcal/mol
15,GGGATCACGTGTAGCT,0.21 kcal/mol
16,GAGAACACGTGGGGGG,-0.01 kcal/mol
17,AAAGTCACGTGTATGA,0.12 kcal/mol
18,TGTTGCACGTGCTTTA,-0.09 kcal/mol
19,AAGCTCACGTGGTTGG,0.25 kcal/mol
20,GGGTCCACGTGAGGCT,0.13 kcal/mol
21,TATGGCACGTGATGCG,-0.02 kcal/mol
22,TGGGCCACGTGCAGTG,-0.08 kcal/mol
23,GGAAACACGTGTGGTG,0.09 kcal/mol
24,TGATGCACGTGGCTGG,-0.18 kcal/mol
25,TGAGTCACGTGAGGCG,0.25 kcal/mol

row,Sequence,relative binding free energy
1,AAGCGCACGTGTTTGG,-0.12 kcal/mol
2,GCTTGCACGTGTAGTT,0.12 kcal/mol
3,TTATCCACGTGTTTTA,0.02 kcal/mol
4,TTAGTCACGTGTCATG,0.04 kcal/mol
5,GGCGTCACGTGGGGCT,-0.05 kcal/mol
6,GTGTCCACGTGGTGTT,-0.04 kcal/mol
7,AAGTGCACGTGGTCTT,-0.13 kcal/mol
8,TGTGACACGTGGATGC,-0.03 kcal/mol
9,GCAATCACGTGGGTTG,-0.02 kcal/mol
10,ATAGGCACGTGTTACT,-0.17 kcal/mol
11,TTAGTCACGTGGCTAG,0.06 kcal/mol
12,TAGCACACGTGAGTGG,0.15 kcal/mol
13,GGTAGCACGTGGTCAT,-0.14 kcal/mol
14,ATGGGCACGTGCGGAG,-0.18 kcal/mol
15,TTTGCCACGTGGAGTT,-0.09 kcal/mol
16,TCGAGCACGTGTTGGA,-0.1 kcal/mol
17,ATGTGCACGTGTGCTT,-0.13 kcal/mol
18,TGAAACACGTGTTTGT,0.02 kcal/mol
19,AGGAGCACGTGGGCGT,-0.2 kcal/mol
20,AGTGTCACGTGTAAAG,0.05 kcal/mol
21,CGATTCACGTGGTGTC,0.3 kcal/mol
22,GGTAGCACGTGTAGAT,0.08 kcal/mol
23,TTTTTCACGTGTGAAG,0.32 kcal/mol
24,TCAAGCACGTGTTTAT,-0.06 kcal/mol
25,AGTAACACGTGAGAGG,0.16 kcal/mol

row,Sequence,relative binding free energy
1,GGTAACACGTGGGAAG,0.02 kcal/mol
2,TTGAGCACGTGGGGCC,-0.21 kcal/mol
3,TTGCTCACGTGTTGCT,0.16 kcal/mol
4,ATAGTCACGTGAGGCT,0.41 kcal/mol
5,AGCGTCACGTGTGTTT,0.13 kcal/mol
6,TTTCTCACGTGTTTGG,0.23 kcal/mol
7,GTCTTCACGTGGGATG,0.24 kcal/mol
8,GTTTGCACGTGTGCCT,-0.02 kcal/mol
9,GAGTACACGTGGCTTG,0.05 kcal/mol
10,CATAGCACGTGTGTTG,-0.12 kcal/mol
11,AAAGTCACGTGGAGTG,-0.03 kcal/mol
12,GGGGCCACGTGAGGGG,0.13 kcal/mol
13,TAGGACACGTGGAGGA,-0.11 kcal/mol
14,GTATGCACGTGTGTAG,0.07 kcal/mol
15,AGATTCACGTGGGGGT,0.21 kcal/mol
16,TATAACACGTGGAGTG,0.07 kcal/mol
17,TTATCCACGTGGGTCG,0.03 kcal/mol
18,CGGGGCACGTGCGGAT,-0.17 kcal/mol
19,TCATTCACGTGTGCTT,0.28 kcal/mol
20,GCTTGCACGTGGTTGC,-0.03 kcal/mol
21,ATCGTCACGTGTTAGG,0.21 kcal/mol
22,GGAAGCACGTGCGTTT,-0.03 kcal/mol
23,GGTGCCACGTGATGTT,0.18 kcal/mol
24,TTTGACACGTGGTAGG,-0.08 kcal/mol
25,TTTGGCACGTGCGCGA,-0.21 kcal/mol

row,Sequence,relative binding free energy
1,TGTGGCACGTGATTGC,-0.01 kcal/mol
2,CCTTACACGTGGGGTT,-0.01 kcal/mol
3,TCATGCACGTGTGGGC,-0.07 kcal/mol
4,ATATACACGTGCGGGA,0.13 kcal/mol
5,AGGGTCACGTGTCAAG,0.06 kcal/mol
6,TTACTCACGTGGCGGG,0.13 kcal/mol
7,AAAGTCACGTGTGAGA,0.17 kcal/mol
8,ATCTTCACGTGGTCGG,0.14 kcal/mol
9,TGCAACACGTGAGTTT,0.26 kcal/mol
10,GAAGTCACGTGGAAGG,0.21 kcal/mol
11,TGTCTCACGTGAAGGG,0.43 kcal/mol
12,CGTTACACGTGGTTGT,0.07 kcal/mol
13,CGGGACACGTGGATAG,0.06 kcal/mol
14,GGAGTCACGTGTGGTG,0.25 kcal/mol
15,ACGGCCACGTGTGTGT,-0.12 kcal/mol
16,TGTATCACGTGGTTAA,0.01 kcal/mol
17,ATTTTCACGTGCAATG,0.22 kcal/mol
18,TAGACCACGTGGGGGG,-0.21 kcal/mol
19,TTTAACACGTGTTTCA,0.1 kcal/mol
20,AGGGACACGTGCTAGT,0.08 kcal/mol
21,AGGGTCACGTGCACTG,0.07 kcal/mol
